Binding signal data for 37 sequences are collected here from publication PMC5700166.

This is a selection; strong and weak results do not stand in their true shares. The list includes weakly bound sequences.

The target in this experiment is T1, GST-Dm-Relish (UniProt Q94527).
T1 sequence: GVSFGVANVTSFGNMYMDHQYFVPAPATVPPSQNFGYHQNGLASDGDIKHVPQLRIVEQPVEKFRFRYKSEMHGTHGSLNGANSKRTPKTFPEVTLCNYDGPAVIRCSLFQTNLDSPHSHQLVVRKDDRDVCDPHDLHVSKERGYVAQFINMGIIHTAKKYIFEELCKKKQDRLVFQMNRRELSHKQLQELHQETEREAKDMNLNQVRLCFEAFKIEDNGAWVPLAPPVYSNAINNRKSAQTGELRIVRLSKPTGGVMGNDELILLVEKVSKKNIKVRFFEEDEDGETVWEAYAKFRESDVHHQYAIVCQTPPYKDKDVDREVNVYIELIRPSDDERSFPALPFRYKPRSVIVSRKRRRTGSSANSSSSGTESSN
The experiment in a line: protein-binding microarray (PBM). Particulars: PBM: ~300 nM protein, 6 mM HEPES pH 7.8, 80 mM KCl, 0.5 mM EDTA, 0.5 mM EGTA, 6% glycerol, 35 ng/ul poly-dIdC, 1% milk, 1 h, room temperature; Ap Aiptasia and Nv Nematostella (sea anemones) / Co Capsaspora / Aq Amphimedon (sponge) / Dm Drosophila / Hu human; RHD is the Rel homology domain; high values mean tight binding; most listed sequences are background and not binding sites; double strand, one strand shown.
“CCGATTAACATCACCTTTTCCCCTGATGTTAATCGGGTCTTGATTCGCTTGACGCTGCTG” showed a binding signal of 2.77 z-score.

Sequence “CCGATTAACATCAAAATTTACCCTGATGTTAATCGGGTCTTGATTCGCTTGACGCTGCTG” displayed a binding signal of 4.47 z-score.

Regarding “CCGATTAACATCAACTTCCCCCCTGATGTTAATCGGGTCTTGATTCGCTTGACGCTGCTG”, the binding signal was found to be 7.29 z-score.

With “CCGATTAACATCAGAGAATTCCCTGATGTTAATCGGGTCTTGATTCGCTTGACGCTGCTG”, the binding signal was 4.51 z-score.

“CCGATTAACATCAGGGGGGAAGATGATGTTAATCGGGTCTTGATTCGCTTGACGCTGCTG” gave a binding signal of 3.64 z-score.

On to “CCGATTAACATCACCATTTTCCCTGATGTTAATCGGGTCTTGATTCGCTTGACGCTGCTG”, for which the binding signal is 1.32 z-score.

Consider “CCGATTAACATCAACAATCCCCCTGATGTTAATCGGGTCTTGATTCGCTTGACGCTGCTG”, for which the binding signal came to 5.46 z-score.

Consider “CCGATTAACATCAAACATCCCCTTGATGTTAATCGGGTCTTGATTCGCTTGACGCTGCTG”, for which the binding signal stood at 6.75 z-score.

For the sequence “CCGATTAACATCAGGGGATAACCTGATGTTAATCGGGTCTTGATTCGCTTGACGCTGCTG”, the binding signal worked out at 7.51 z-score.

Consider “CCGATTAACATCAGGGGGAAGCATGATGTTAATCGGGTCTTGATTCGCTTGACGCTGCTG”, for which the binding signal was 3.21 z-score.

“CCGATTAACATCAAGGAATTCCCTGATGTTAATCGGGTCTTGATTCGCTTGACGCTGCTG” gave a binding signal of 8.03 z-score.

Turning to “CCGATTAACATCAAGTGTTTCCCTGATGTTAATCGGGTCTTGATTCGCTTGACGCTGCTG”, the binding signal stood at 4.7 z-score.

Sequence “CCGATTAACATCAGGGAATGACCTGATGTTAATCGGGTCTTGATTCGCTTGACGCTGCTG” showed a binding signal of 3.4 z-score.

In the case of “CCGATTAACATCATACAAGGGAGTGATGTTAATCGGGTCTTGATTCGCTTGACGCTGCTG”, the binding signal was -0.038 z-score.

Sequence “CCGATTAACATCATAATCCCCCATGATGTTAATCGGGTCTTGATTCGCTTGACGCTGCTG” yielded a binding signal of 5.67 z-score.

The sequence “CCGATTAACATCAGGGAAAGACCTGATGTTAATCGGGTCTTGATTCGCTTGACGCTGCTG” registered a binding signal of 5.61 z-score.

On to “CCGATTAACATCATCCTGGGAAATGATGTTAATCGGGTCTTGATTCGCTTGACGCTGCTG”, for which the binding signal turned out to be 0.513 z-score.

As to “CCGATTAACATCACACCACCCCCTGATGTTAATCGGGTCTTGATTCGCTTGACGCTGCTG”, the binding signal was 2.4 z-score.

For “CCGATTAACATCAGGCCTTTCCCTGATGTTAATCGGGTCTTGATTCGCTTGACGCTGCTG”, the binding signal is 5.87 z-score.

“CCGATTAACATCAGGGGGTGAAATGATGTTAATCGGGTCTTGATTCGCTTGACGCTGCTG” showed a binding signal of 3.46 z-score.

As for “CCGATTAACATCAAAAAACTCCCTGATGTTAATCGGGTCTTGATTCGCTTGACGCTGCTG”, the binding signal turned out to be 7.13 z-score.

On to “CCGATTAACATCAGATCTTCCCCTGATGTTAATCGGGTCTTGATTCGCTTGACGCTGCTG”, for which the binding signal came to 4.83 z-score.

“CCGATTAACATCAAATTTACCCCTGATGTTAATCGGGTCTTGATTCGCTTGACGCTGCTG” showed a binding signal of 3.85 z-score.

Sequence “CCGATTAACATCAAGGAACTCCCTGATGTTAATCGGGTCTTGATTCGCTTGACGCTGCTG” showed a binding signal of 5.06 z-score.

The sequence “CCGATTAACATCAGGACATCCCCTGATGTTAATCGGGTCTTGATTCGCTTGACGCTGCTG” yielded a binding signal of 8.74 z-score.

Turning to “CCGATTAACATCAATAAAATCCCTGATGTTAATCGGGTCTTGATTCGCTTGACGCTGCTG”, the binding signal came out at 6.47 z-score.

On to “CCGATTAACATCAGCATGGGAAATGATGTTAATCGGGTCTTGATTCGCTTGACGCTGCTG”, for which the binding signal came out at 0.0696 z-score.

Sequence “CCGATTAACATCAACATGGGAATTGATGTTAATCGGGTCTTGATTCGCTTGACGCTGCTG” had a binding signal of 0.541 z-score.

Take “CCGATTAACATCACTGAAATCCCTGATGTTAATCGGGTCTTGATTCGCTTGACGCTGCTG”: the binding signal was 3.35 z-score.

“CCGATTAACATCACAATTCCCCCTGATGTTAATCGGGTCTTGATTCGCTTGACGCTGCTG” yielded a binding signal of 5.44 z-score.

As for “CCGATTAACATCACGGGATTCCCTGATGTTAATCGGGTCTTGATTCGCTTGACGCTGCTG”, the binding signal was 10.2 z-score.

“CCGATTAACATCAAATTTTTCCCTGATGTTAATCGGGTCTTGATTCGCTTGACGCTGCTG” returned a binding signal of 2.35 z-score.

In turn, “CCGATTAACATCAGCAATTTCCCTGATGTTAATCGGGTCTTGATTCGCTTGACGCTGCTG” gave a binding signal of 1.78 z-score.

In turn, “CCGATTAACATCAACGAATCCCCTGATGTTAATCGGGTCTTGATTCGCTTGACGCTGCTG” showed a binding signal of 4.84 z-score.

“CCGATTAACATCAAAAGGGAATTTGATGTTAATCGGGTCTTGATTCGCTTGACGCTGCTG” showed a binding signal of 4.25 z-score.

“CCGATTAACATCAGGGAAAAGAATGATGTTAATCGGGTCTTGATTCGCTTGACGCTGCTG”: the binding signal amounted to 0.818 z-score.

“CCGATTAACATCAGGAACACCCCTGATGTTAATCGGGTCTTGATTCGCTTGACGCTGCTG” returned a binding signal of 3.5 z-score.
